# The list shows a part of the results.
# B1: StdA (Salmonella typhimurium), Q8Z3Z0 (protein)
# chain: MAAAGMMYGASVFAADTTPTAGPFGSGKILFTGTITNSPCDIAPGDDAITVPFGQISYRKLNTANATTDSKPFTIHLQNCAFDPNETTIAGSAGKMSKVTVSFSGTADTSGKAYVSTGSAQHVGVQLLKGDNTSLITPNTPMPDGDAQQLQAGNNELNFFARLIALTDAATPGDVNASVTYTLKYL
# Key:
# Experiment in all cases: glycan array binding signal (z-score within array); higher = stronger binding
# Conditions in all cases: glycan notation: IUPAC condensed, linker removed
# [1] = target: Man(a1-3)[Man(a1-6)]Man(a1-6)[Man(a1-3)]Man(b1-4)GlcNAc(b1-4)GlcNAc
# How it was run: (§1)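 Glycan array data were curated from 3228 arrays in the Consortium for Functional Glycomics database and kept only where the protein sequence was available. Glycan names were converted to IUPAC-condensed notation, and columns mapping to the same glycan were averaged. The binding signal is a within-array Z-score, averaged across arrays of the same protein sequence at different concentrations or buffers and across linkers. Negative Z-scores can be read as non-binding.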
# [2] = target: Man(a1-3)[Man(a1-6)]Man(b1-4)GlcNAc(b1-4)GlcNAc
# How it was run: as §1
# [3] = target: Man(a1-6)Man
# How it was run: as §1
# [4] = target: Man(b1-4)GlcNAc
# How it was run: as §1
# [5] = target: Neu5Ac(a2-3)Gal
# How it was run: as §1
# [6] = target: Neu5Ac(a2-3)Gal(b1-3)GalNAc
# How it was run: as §1
# [7] = target: Neu5Ac(a2-3)Gal(b1-3)GalNAc(b1-3)Gal(a1-4)Gal(b1-4)Glc
# How it was run: as §1
# [8] = target: Neu5Ac(a2-3)Gal(b1-3)GalNAc(b1-3)Gal(b1-4)GlcNAc
# How it was run: as §1
# [9] = target: Neu5Ac(a2-3)Gal(b1-3)GalNAc(b1-4)[Neu5Ac(a2-3)]Gal(b1-4)Glc
# How it was run: as §1
# [10] = target: Neu5Ac(a2-3)Gal(b1-3)GalNAc6S
# How it was run: as §1
# [11] = target: Neu5Ac(a2-3)Gal(b1-3)GlcNAc
# How it was run: as §1
# [12] = target: Neu5Ac(a2-3)Gal(b1-3)GlcNAc(b1-3)Gal(b1-3)GlcNAc
# How it was run: as §1
# [13] = target: Neu5Ac(a2-3)Gal(b1-3)GlcNAc6S
# How it was run: as §1
# [14] = target: Neu5Ac(a2-3)Gal(b1-3)[Fuc(a1-4)]GlcNAc
# How it was run: as §1
# [15] = target: Neu5Ac(a2-3)Gal(b1-3)[Fuc(a1-4)]GlcNAc(b1-3)Gal(b1-3)[Fuc(a1-4)]GlcNAc
# How it was run: as §1
# [16] = target: Neu5Ac(a2-3)Gal(b1-3)[Fuc(a1-4)]GlcNAc(b1-3)Gal(b1-4)[Fuc(a1-3)]GlcNAc
# How it was run: as §1
# [17] = target: Neu5Ac(a2-3)Gal(b1-3)[Neu5Ac(a2-3)Gal(b1-4)]GlcNAc
# How it was run: as §1
# [18] = target: Neu5Ac(a2-3)Gal(b1-3)[Neu5Ac(a2-6)]GalNAc
# How it was run: as §1
# [19] = target: Neu5Ac(a2-3)Gal(b1-4)Glc
# How it was run: as §1
# [20] = target: Neu5Ac(a2-3)Gal(b1-4)GlcNAc
# How it was run: as §1
# [21] = target: Neu5Ac(a2-3)Gal(b1-4)GlcNAc(b1-2)Man(a1-3)[GlcNAc(b1-2)Man(b1-4)GlcNAc(b1-2)Man(a1-6)]Man(b1-4)GlcNAc(b1-4)GlcNAc
# How it was run: as §1
# [22] = target: Neu5Ac(a2-3)Gal(b1-4)GlcNAc(b1-2)Man(a1-3)[Neu5Ac(a2-6)Gal(b1-4)GlcNAc(b1-2)Man(a1-6)]Man(b1-4)GlcNAc(b1-4)GlcNAc
# How it was run: as §1
# [23] = target: Neu5Ac(a2-3)Gal(b1-4)GlcNAc(b1-3)Gal(b1-3)GlcNAc
# How it was run: as §1
# [24] = target: Neu5Ac(a2-3)Gal(b1-4)GlcNAc(b1-3)Gal(b1-4)GlcNAc
# How it was run: as §1
# [25] = target: Neu5Ac(a2-3)Gal(b1-4)GlcNAc(b1-3)Gal(b1-4)GlcNAc(b1-3)Gal(b1-4)GlcNAc
# How it was run: as §1
# [26] = target: Neu5Ac(a2-3)Gal(b1-4)GlcNAc(b1-3)Gal(b1-4)[Fuc(a1-3)]GlcNAc
# How it was run: as §1
# [27] = target: Neu5Ac(a2-3)Gal(b1-4)GlcNAc(b1-3)GalNAc
# How it was run: as §1
# [28] = target: Neu5Ac(a2-3)Gal(b1-4)GlcNAc(b1-6)[Gal(b1-3)]GalNAc
# How it was run: as §1
# [29] = target: Neu5Ac(a2-3)Gal(b1-4)GlcNAc(b1-6)[Neu5Ac(a2-3)Gal(b1-3)]GalNAc
# How it was run: as §1
# [30] = target: Neu5Ac(a2-3)Gal(b1-4)GlcNAc6S
# How it was run: as §1
# [31] = target: Neu5Ac(a2-3)Gal(b1-4)[Fuc(a1-3)]GlcNAc
# How it was run: as §1
# [32] = target: Neu5Ac(a2-3)Gal(b1-4)[Fuc(a1-3)]GlcNAc(b1-3)Gal
# How it was run: as §1
# [33] = target: Neu5Ac(a2-3)Gal(b1-4)[Fuc(a1-3)]GlcNAc(b1-3)Gal(b1-4)GlcNAc
# How it was run: as §1
# [34] = target: Neu5Ac(a2-3)Gal(b1-4)[Fuc(a1-3)]GlcNAc(b1-3)Gal(b1-4)[Fuc(a1-3)]GlcNAc(b1-3)Gal(b1-4)[Fuc(a1-3)]GlcNAc
# How it was run: as §1
# [35] = target: Neu5Ac(a2-3)Gal(b1-4)[Fuc(a1-3)]GlcNAc(b1-6)[Gal(b1-3)]GalNAc
# How it was run: as §1
# [36] = target: Neu5Ac(a2-3)Gal(b1-4)[Fuc(a1-3)]GlcNAc(b1-6)[Neu5Ac(a2-3)Gal(b1-3)]GalNAc
# How it was run: as §1
# [37] = target: Neu5Ac(a2-3)Gal(b1-4)[Fuc(a1-3)]GlcNAc6S
# How it was run: as §1
# [38] = target: Neu5Ac(a2-3)Gal6S(b1-4)GlcNAc
# How it was run: as §1
# [39] = target: Neu5Ac(a2-3)Gal6S(b1-4)[Fuc(a1-3)]GlcNAc
# How it was run: as §1
# [40] = target: Neu5Ac(a2-3)GalNAc
# How it was run: as §1
# [41] = target: Neu5Ac(a2-3)GalNAc(b1-4)GlcNAc
# How it was run: as §1
# [42] = target: Neu5Ac(a2-3)[GalNAc(b1-4)]Gal(b1-4)Glc
# How it was run: as §1
# [43] = target: Neu5Ac(a2-3)[GalNAc(b1-4)]Gal(b1-4)GlcNAc
# How it was run: as §1
binder,measurement,setting,value
B1,glycan array binding signal (z-score),[1],-0.131
same,glycan array binding signal (z-score),[2],-0.463
same,glycan array binding signal (z-score),[3],-0.416
same,glycan array binding signal (z-score),[4],-0.303
same,glycan array binding signal (z-score),[5],-0.386
same,glycan array binding signal (z-score),[6],-0.736
same,glycan array binding signal (z-score),[7],-0.426
same,glycan array binding signal (z-score),[8],-0.265
same,glycan array binding signal (z-score),[9],0.041
same,glycan array binding signal (z-score),[10],-0.759
same,glycan array binding signal (z-score),[11],-0.472
same,glycan array binding signal (z-score),[12],0.09
same,glycan array binding signal (z-score),[13],-0.5
same,glycan array binding signal (z-score),[14],-0.342
same,glycan array binding signal (z-score),[15],-0.311
same,glycan array binding signal (z-score),[16],-0.445
same,glycan array binding signal (z-score),[17],-0.435
same,glycan array binding signal (z-score),[18],0.014
same,glycan array binding signal (z-score),[19],-0.372
same,glycan array binding signal (z-score),[20],-0.157
same,glycan array binding signal (z-score),[21],-0.012
same,glycan array binding signal (z-score),[22],-0.746
same,glycan array binding signal (z-score),[23],-0.342
same,glycan array binding signal (z-score),[24],-0.399
same,glycan array binding signal (z-score),[25],-0.744
same,glycan array binding signal (z-score),[26],0.755
same,glycan array binding signal (z-score),[27],-0.642
same,glycan array binding signal (z-score),[28],0.124
same,glycan array binding signal (z-score),[29],-0.792
same,glycan array binding signal (z-score),[30],-0.404
same,glycan array binding signal (z-score),[31],-0.614
same,glycan array binding signal (z-score),[32],-0.473
same,glycan array binding signal (z-score),[33],0.779
same,glycan array binding signal (z-score),[34],-0.198
same,glycan array binding signal (z-score),[35],2.27
same,glycan array binding signal (z-score),[36],1.41
same,glycan array binding signal (z-score),[37],-0.293
same,glycan array binding signal (z-score),[38],-0.214
same,glycan array binding signal (z-score),[39],-0.437
same,glycan array binding signal (z-score),[40],0.172
same,glycan array binding signal (z-score),[41],-0.754
same,glycan array binding signal (z-score),[42],-0.281
same,glycan array binding signal (z-score),[43],-0.022

# — the supplement of paper PMC8728848
